# Some of the results follow.
# B1: Epa13 (Candida glabrata) (protein)
# chain: MGSSHHHHHHSSGLVPRGSHMASDSSENGYAHGCSPSIRAKLKPGLSMEIYSYALRPTDDHCWDSAYLDPMFPRTGYLTHKLLGKAEGIIGPLNFLAKNPACIPAVSTLPLAFHFPKPFTITNFTMLLYGYLSPKKTGKYTFKLLADDLLLMNFGADNAFDCCSHDATKDNIGEYVAYSVWPGVNKNVTVYLESGIYYPLRLFFNNRDAIAQLDFAYYFNDSPIRQTDFSGMFFSIPDSVKCPANI
# Columns and labels:
# Assay in all cases: glycan array binding signal (z-score within array); higher = stronger binding
# Settings in all cases: glycan notation: IUPAC condensed, linker removed
# [1] = target: GlcNAc(b1-3)Gal(b1-4)GlcNAc(b1-3)Gal(b1-4)GlcNAc(b1-3)GalNAc
# How it was run: (§1)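 The binding signal is a Z-score computed within each array. Data were drawn from 3228 arrays in the Consortium for Functional Glycomics database, restricted to those with a known protein sequence. Scores were averaged over arrays of the same protein sequence at different concentrations or buffers, and over linkers, and negative values can be taken as non-binding.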
# [2] = target: GlcNAc(b1-3)Gal(b1-4)GlcNAc(b1-3)GalNAc
# How it was run: as §1
# [3] = target: GlcNAc(b1-3)Gal(b1-4)GlcNAc(b1-3)[GlcNAc(b1-3)Gal(b1-4)GlcNAc(b1-3)]GalNAc
# How it was run: as §1
# [4] = target: GlcNAc(b1-3)Gal(b1-4)GlcNAc(b1-6)[Gal(b1-3)]GalNAc
# How it was run: as §1
# [5] = target: GlcNAc(b1-3)Gal(b1-4)GlcNAc(b1-6)[GlcNAc(b1-3)Gal(b1-3)]GalNAc
# How it was run: as §1
# [6] = target: GlcNAc(b1-3)Gal(b1-4)GlcNAc(b1-6)[GlcNAc(b1-3)]Gal(b1-4)GlcNAc
# How it was run: as §1
# [7] = target: GlcNAc(b1-3)GalNAc
# How it was run: as §1
# [8] = target: GlcNAc(b1-3)Man
# How it was run: as §1
# [9] = target: GlcNAc(b1-3)[GlcNAc(b1-4)][GlcNAc(b1-6)]GlcNAc
# How it was run: as §1
# [10] = target: GlcNAc(b1-3)[GlcNAc(b1-6)]Gal(b1-4)GlcNAc
# How it was run: as §1
# [11] = target: GlcNAc(b1-3)[GlcNAc(b1-6)]GalNAc
# How it was run: as §1
# [12] = target: GlcNAc(b1-4)Gal(b1-4)GlcNAc
# How it was run: as §1
# [13] = target: GlcNAc(b1-4)GlcNAc
# How it was run: as §1
# [14] = target: GlcNAc(b1-4)GlcNAc(b1-4)GlcNAc
# How it was run: as §1
# [15] = target: GlcNAc(b1-4)GlcNAc(b1-4)GlcNAc(b1-4)GlcNAc(b1-4)GlcNAc
# How it was run: as §1
# [16] = target: GlcNAc(b1-4)GlcNAc(b1-4)GlcNAc(b1-4)GlcNAc(b1-4)GlcNAc(b1-4)GlcNAc
# How it was run: as §1
# [17] = target: GlcNAc(b1-4)[GlcNAc(b1-6)]GalNAc
# How it was run: as §1
# [18] = target: GlcNAc(b1-6)Gal(b1-4)GlcNAc
# How it was run: as §1
# [19] = target: GlcNAc(b1-6)GalNAc
# How it was run: as §1
# [20] = target: GlcNAc6S(b1-3)Gal(b1-4)GlcNAc
# How it was run: as §1
# [21] = target: Kdn(a2-3)Gal(b1-3)GalNAc
# How it was run: as §1
# [22] = target: Kdn(a2-3)Gal(b1-3)GlcNAc
# How it was run: as §1
# [23] = target: Kdn(a2-3)Gal(b1-4)Glc
# How it was run: as §1
# [24] = target: Kdn(a2-3)Gal(b1-4)GlcNAc
# How it was run: as §1
# [25] = target: Kdn(a2-3)Gal(b1-4)[Fuc(a1-3)]GlcNAc
# How it was run: as §1
# [26] = target: Kdn(a2-6)Gal(b1-4)GlcNAc
# How it was run: as §1
# [27] = target: Man(a1-2)Man(a1-2)Man(a1-3)Man
# How it was run: as §1
# [28] = target: Man(a1-2)Man(a1-2)Man(a1-6)[Man(a1-3)]Man
# How it was run: as §1
# [29] = target: Man(a1-2)Man(a1-3)Man
# How it was run: as §1
# [30] = target: Man(a1-2)Man(a1-3)[Man(a1-2)Man(a1-6)]Man
# How it was run: as §1
# [31] = target: Man(a1-2)Man(a1-3)[Man(a1-2)Man(a1-6)]Man(a1-6)[Man(a1-2)Man(a1-2)Man(a1-3)]Man
# How it was run: as §1
# [32] = target: Man(a1-2)Man(a1-3)[Man(a1-2)Man(a1-6)]Man(a1-6)[Man(a1-2)Man(a1-2)Man(a1-3)]Man(b1-4)GlcNAc(b1-4)GlcNAc
# How it was run: as §1
# [33] = target: Man(a1-2)Man(a1-3)[Man(a1-6)]Man(a1-6)[Man(a1-2)Man(a1-3)]Man(b1-4)GlcNAc(b1-4)GlcNAc
# How it was run: as §1
# [34] = target: Man(a1-2)Man(a1-6)[Man(a1-3)]Man(a1-6)[Man(a1-2)Man(a1-2)Man(a1-3)]Man
# How it was run: as §1
# [35] = target: Man(a1-2)Man(a1-6)[Man(a1-3)]Man(a1-6)[Man(a1-2)Man(a1-2)Man(a1-3)]Man(b1-4)GlcNAc(b1-4)GlcNAc
# How it was run: as §1
# [36] = target: Man(a1-3)[Man(a1-6)]Man
# How it was run: as §1
# [37] = target: Man(a1-3)[Man(a1-6)]Man(a1-6)[Man(a1-2)Man(a1-3)]Man(b1-4)GlcNAc(b1-4)GlcNAc
# How it was run: as §1
binder,measurement,setting,value
B1,glycan array binding signal (z-score),[1],-0.275
same,glycan array binding signal (z-score),[2],-0.134
same,glycan array binding signal (z-score),[3],0.07
same,glycan array binding signal (z-score),[4],-0.08
same,glycan array binding signal (z-score),[5],0.106
same,glycan array binding signal (z-score),[6],-0.3
same,glycan array binding signal (z-score),[7],-0.291
same,glycan array binding signal (z-score),[8],-0.27
same,glycan array binding signal (z-score),[9],-0.177
same,glycan array binding signal (z-score),[10],-0.346
same,glycan array binding signal (z-score),[11],-0.52
same,glycan array binding signal (z-score),[12],-0.349
same,glycan array binding signal (z-score),[13],0.063
same,glycan array binding signal (z-score),[14],-0.335
same,glycan array binding signal (z-score),[15],-0.06
same,glycan array binding signal (z-score),[16],-0.051
same,glycan array binding signal (z-score),[17],-0.416
same,glycan array binding signal (z-score),[18],-0.342
same,glycan array binding signal (z-score),[19],-0.317
same,glycan array binding signal (z-score),[20],0.032
same,glycan array binding signal (z-score),[21],0.239
same,glycan array binding signal (z-score),[22],-0.544
same,glycan array binding signal (z-score),[23],-0.266
same,glycan array binding signal (z-score),[24],-0.455
same,glycan array binding signal (z-score),[25],0.184
same,glycan array binding signal (z-score),[26],-0.44
same,glycan array binding signal (z-score),[27],-0.54
same,glycan array binding signal (z-score),[28],0.029
same,glycan array binding signal (z-score),[29],-0.531
same,glycan array binding signal (z-score),[30],-0.414
same,glycan array binding signal (z-score),[31],-0.397
same,glycan array binding signal (z-score),[32],-0.368
same,glycan array binding signal (z-score),[33],-0.409
same,glycan array binding signal (z-score),[34],-0.424
same,glycan array binding signal (z-score),[35],-0.149
same,glycan array binding signal (z-score),[36],-0.564
same,glycan array binding signal (z-score),[37],0.284

# — the supplement of paper PMC8728848
